Experimental data reported in PubChem BioAssay AID651820 (National Center for Advancing Translational Sciences (NCATS), 2012).
Among all 340,000 compounds or so, about 12,000 (3.5%) were called active. Inconclusive results, whose numbers are uncertain, are shown with a selection of clear calls. The call rests on the fitted dose curve; in most records, active means well fitted inhibition curve with a large enough effect; inconclusive means small, poorly fitted or top-dose-only effect, or another doubt; inactive means no such curve, though single readings can be large or run the other way. No potency is given beside an inconclusive call; the fits are too rough.

test: qHTS Assay for Inhibitors of Hepatitis C Virus (HCV); details: Huh7.5.1 HCVcc-Cre (HCVcc is cell-culture hepatitis C virus) infection, luciferase reporter, 44 h; series mostly up to 41.8 µM
Procedure, shortened: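 Antiviral activity was scored by luciferase reporter output from cells infected with HCVcc-Cre (~0.5 moi) in presence of compound, 44 h infection period, cells seeded 1,000/well 4 h prior.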
Potency means the concentration at half of the fitted maximal effect; tags describe the fitted curve by direction and shape.

SMILES | Potency
Cc1nc(SCC(=O)Nc2ccc(CN3CCCC3)cc2)c2c(C)c(C)sc2n1 | inconclusive [inhibitor, partial curve]
CN(C(=O)C1CCC(CNS(=O)(=O)c2cccc3cccnc23)CC1)C1CCCCC1 (stereo not drawn) | inconclusive [inhibitor, single point]
O=c1cc(C(F)(F)F)nc(SC/C=C/c2ccccc2)[nH]1 | inactive
O=C(Nc1ccc2c(c1)OCO2)c1cc(-c2ccncc2)nc2ccccc12 | inconclusive [inhibitor, partial curve, poor fit]
O=C(NC1CCCc2ccccc21)C(Cc1ccccc1)NS(=O)(=O)c1cccs1 (stereo not drawn) | inconclusive [inhibitor, single point]
Cc1cc(C(=O)CS(=O)(=O)c2ccccc2)cc(C)c1O | inactive
Cc1ccc(SCC(=O)N2c3ccccc3Sc3ccccc32)cc1 | inconclusive [inhibitor, single point]
O=C(CCN1C(=O)c2ccccc2C1=O)N1CCCCCC1 | inactive
O=C(Nc1ccccc1F)c1cc2nc(C(F)F)cc(C(F)F)n2n1 | inconclusive [inhibitor, partial curve]
COc1ccc(OCc2cc(C(=O)NC(C)Cc3cccnc3)no2)c(Cl)c1 (stereo not drawn) | inconclusive [inhibitor, partial curve]
O=C1C=CC(=O)N1CCNc1ncc(C(F)(F)F)cc1Cl | inconclusive [inhibitor, single point]
COc1ccc(-c2csc(NC(=O)c3ccccc3NS(=O)(=O)c3ccc(C)cc3)n2)cc1 | active: 5.01 µM
Cc1ccc(C(=O)Nc2ccc(Cl)cn2)cc1 | inconclusive [inhibitor, partial curve]
COC(=O)C1=C(COc2ccc(F)cc2)NC(=O)NC1c1ccc(C)cc1C (stereo not drawn) | inconclusive [inhibitor, single point]
COCCCn1c(SCC(=O)Nc2ccc(NC(C)=O)cc2)nc2sc3c(c2c1=O)CCC3 | inactive
CN(C(=O)c1ccc2c(=O)n3c(nc2c1)CCCCC3)c1ccccc1 | inactive
COc1cccc(Nc2nc(C)nc3c2oc2ccccc23)c1 | active: 11.2 µM
CC(=O)CSc1ncnc2sc3c(c12)CCC(C)C3 (stereo not drawn) | inconclusive [inhibitor, single point]
Cn1ccc2ccc(C3=CC(=O)C[C@H](c4ccc(F)cc4)C3)cc21 | inconclusive [inhibitor, single point]
O=C(Cc1ccc2c(c1)OCCO2)Nc1cc(C(F)(F)F)ccc1N1CCOCC1 | inconclusive [inhibitor, single point]
CN(C)C(CNC(=O)c1ccc(S(=O)(=O)Nc2ccccc2)cc1)c1ccco1 (stereo not drawn) | inactive
O=C(Nc1ncccn1)c1cc(-c2cccc(Br)c2)nc2ccccc12 | inconclusive [inhibitor, full curve, poor fit]
O=C(Nc1cccc(S(=O)(=O)NC2=NCCCCC2)c1)c1cc(-c2ccccc2)nc2ccccc12 | inactive

SMILES | Potency
C[C@H](CO)N1C[C@H](C)[C@@H](CN(C)Cc2ccc(C(=O)O)cc2)Oc2ccc(NS(C)(=O)=O)cc2C1=O | inconclusive [inhibitor, single point]
CCN(CC)C(=O)[C@H]1C[C@H](CC(=O)NCCCN(C)C)C(=O)N2CCc3c([nH]c4ccc(Cl)cc34)[C@]12C | inconclusive [inhibitor, single point]
CSc1nsc(/C=C/Nc2ccc(C)cc2)c1C#N | inconclusive [inhibitor, partial curve]
CCCCCn1c(=O)[nH]c2cc(C(=O)NCCN3CCCCC3C)ccc2c1=O (stereo not drawn) | inconclusive [inhibitor, single point]
OCCC1CN(Cc2cnc(-c3ccccc3)s2)CCN1CCc1ccccc1 (stereo not drawn) | inconclusive [inhibitor, single point]
C[C@]12c3[nH]c4ccc(Cl)cc4c3CCN1C(=O)[C@@H](CC(=O)NCc1cccc(C(F)(F)F)c1)C[C@@H]2C(=O)N1CCCCC1 | active: 25.1 µM
CCC(=O)c1ccc(OCc2ccc(C(=O)c3ccccc3)cc2)cc1 | inconclusive [inhibitor, full curve]
COc1cccc(/C=C/C(=O)OCC(=O)NCCCc2ccccc2)c1OC | inactive
COCCCNC(=O)c1ccc2c(=O)n(Cc3ccc(Cl)cc3)c(=S)[nH]c2c1 | inactive
Cc1cc(=O)n2c3ccccc3n(CC(O)CN3CCOCC3)c2c1C#N (stereo not drawn) | inconclusive [inhibitor, full curve]
CCn1cc2nc(SCC(=O)Nc3ccccc3F)n(Cc3ccccc3)c(=O)c2n1 | inconclusive [inhibitor, single point]
COc1ccccc1NC(=O)CSc1nnc(-c2ccccn2)o1 | inconclusive [inhibitor, single point]
COCCn1c(SCC(=O)NCc2ccc(F)cc2)nc2ccccc21 | inactive
CC(C)Cc1nnc(NC(=O)CCN2C(=O)c3ccccc3C2=O)s1 | inactive
Cc1c(C(=O)Nc2ccc(Nc3ccccc3)cc2)cccc1[N+](=O)[O-] | inconclusive [inhibitor, single point]
COc1ccc(C2NC(=S)NC3=C2CCc2ccccc23)cc1OC (stereo not drawn) | inconclusive [inhibitor, single point]
COc1cc(-c2nc(-c3ccccn3)no2)cc(OC)c1OC | active: 3.98 µM
COc1ccc2occ(C(=O)c3coc4ccc(O)c(CN(C)C)c34)c2c1 | inconclusive [inhibitor, partial curve]
c1csc(-c2csc3nc(CN4CCOCC4)nc(NCc4ccc5c(c4)OCO5)c23)c1 | inconclusive [inhibitor, partial curve]
O=C(CN1CCOCC1)N/N=C/c1ccccc1 | inconclusive [inhibitor, single point]
O=C(c1ccc2c(c1)OCO2)N(Cc1ccco1)C1(C(=O)NC2CCCCC2)CCCCC1 | active: 10 µM
O=C(c1cccc(C(F)(F)F)c1)C1CCCN(Cc2ccc(OCCO)cc2)C1 (stereo not drawn) | inconclusive [inhibitor, partial curve, poor fit]
COC(=O)C1=C(c2ccc(Cl)c(C(F)(F)F)c2)C[C@@H]2CC[C@H]1N2C(=O)N1CCCC1 | active: 31.6 µM

SMILES | Potency
COc1cccc(C2=CC(=O)C[C@H](c3ccc(Cl)cc3)C2)c1OC | inconclusive [inhibitor, single point]
O=C(CSc1ccccc1)Nc1nc2ccccc2[nH]1 | inactive
CCOc1ccc(-n2cnnn2)cc1S(=O)(=O)NCCc1ccc(OC)c(OC)c1 | inconclusive [inhibitor, partial curve]
CC1(C)S[C@@H]2[C@H](NC(=O)Cc3ccccc3)C(=O)N2[C@H]1C(=O)O | inconclusive [inhibitor, full curve, poor fit]
CCC12C(=O)C(CC)(C(c3ccccc3)=C1c1ccccc1)[C@@H]1C(=O)N(c3ccccc3)C(=O)C12 (stereo partly drawn) | active: 14.1 µM
COc1ccc(CCNC(=O)Cn2ccc3cc(S(=O)(=O)N4CCCC4)ccc32)cc1OC | inconclusive [inhibitor, partial curve]
CC(=O)Nc1ccc(N2CCN(Cc3ccccc3F)CC2)cc1 | inactive
O=C(NNC(=O)c1cc(OCC(F)(F)F)ccc1OCC(F)(F)F)c1cccc(C(F)(F)F)c1 | inconclusive [inhibitor, full curve, poor fit]
O=C(O)CCCN1C(=O)C2C3C=CC(C2C1=O)C1C(=O)N(CCCC(=O)O)C(=O)C31 (stereo not drawn) | inactive
O=C(Nc1ncc2c(n1)-c1ccccc1CC2)c1ccccc1 | inactive
Cc1ccccc1-c1cccc(CN2CCN(C)C(CCO)C2)c1 (stereo not drawn) | inconclusive [inhibitor, single point]
CCCn1c(=S)[nH]c2cc(C(=O)N3CCCC(C(=O)OCC)C3)ccc2c1=O (stereo not drawn) | inconclusive [inhibitor, partial curve]
COc1ccc(-c2cn3cccnc3n2)cc1NC(=O)C(C)Oc1ccccc1 (stereo not drawn) | active: 22.4 µM
COc1cccc2c1OCC([C@@H]1C[C@H]3CN(Cc4cccc(Cl)c4)C(=O)[C@]34CCCN14)=C2 | inconclusive [inhibitor, partial curve]
COc1cc(OC)cc(-c2oc(=O)c3cc(OC)c(OC)cc3c2C#CCCO)c1 | inconclusive [inhibitor, partial curve]
Cc1cc(N2CCCC2)ccc1NC(=O)COc1ccc(Cl)cc1 | inconclusive [inhibitor, partial curve]
CC(NCC#Cc1ccccc1)C(O)c1ccccc1 (stereo not drawn) | inactive
Cc1ccc(C(=O)Oc2ccc(Cl)c3cccnc23)cc1[N+](=O)[O-] | inactive
O/N=C/c1ccc(-c2ccccc2OC(F)(F)F)o1 | inconclusive [inhibitor, single point]
CCOC(=O)c1c(NC(=O)C2=C(C)NC(=S)NC2c2ccccc2C(F)(F)F)sc(C)c1C (stereo not drawn) | inconclusive [inhibitor, single point]
O=C(Nc1ccc2c(c1)OCCO2)c1ccc(Br)c(S(=O)(=O)N2CCOCC2)c1 | inconclusive [inhibitor, single point]
O=S(=O)(c1cccc(F)c1)N1CCc2sccc2C1c1ccc(OC(F)(F)F)cc1 (stereo not drawn) | inconclusive [inhibitor, single point]
